Entries after “also recorded” stand apart in the source; their conditions may differ. For part of its entries the source gives two or more results. Only these are listed. No rule for the calls is given here. The source may hold further records. Values given together differ, and nothing given here explains why; dose, time, organism, isomer or construct need not be as stated for each record. A tag in brackets gives the origin of a value. Letters count within one entry. Marks such as (2×) say how often a value occurs here.

The series has as its system CCRIS mutagenicity, Ames/micronucleus/aberration tests. The experiment in a line: CCRIS mutagenicity studies.
The mark [1] stands for this setting: Test System: AMES SALMONELLA TYPHIMURIUM, Strain/Indicator: TA100, Metabolic Activation: RAT, LIVER, S-9, AROCLOR 1254, Method: STANDARD PLATE.
The mark [2] stands for this setting: Test System: AMES SALMONELLA TYPHIMURIUM, Strain/Indicator: TA1535, Metabolic Activation: NONE, Method: PREINCUBATION
The mark [3] stands for this setting: Test System: AMES SALMONELLA TYPHIMURIUM, Strain/Indicator: TA98, Metabolic Activation: NONE, Method: PREINCUBATION
Setting [4] is: Test System: AMES SALMONELLA TYPHIMURIUM, Strain/Indicator: TA100, Metabolic Activation: NONE, Method: STANDARD PLATE.
[5] abbreviates: End Point: In vitro chromosomal aberrations, Test System: Chinese hamster lung (CHL/IU) cells, Metabolic Activation: None.

As for `Nc1ncc([N+](=O)[O-])s1`, the mutagenic call (Test System: AMES SALMONELLA TYPHIMURIUM, Strain/Indicator: TA100, Metabolic Activation: HAMSTER, LIVER, S-9, Method: STANDARD PLATE) is “inactive; negative (2×) and active; positive”; the mutagenic call (Test System: AMES SALMONELLA TYPHIMURIUM, Strain/Indicator: TA100, Metabolic Activation: MOUSE, LIVER, S-9, AROCLOR 1254, Method: STANDARD PLATE) is “inactive; negative (2×) and active; positive”; the mutagenic call (Test System: AMES SALMONELLA TYPHIMURIUM, Strain/Indicator: TA100, Metabolic Activation: MOUSE, LIVER, S-9, Method: STANDARD PLATE) is “inactive; negative (2×) and active; positive”; the mutagenic call under setting [1] was “inactive; negative (2×) and active; positive”; the mutagenic call (Test System: AMES SALMONELLA TYPHIMURIUM, Strain/Indicator: TA100, Metabolic Activation: RAT, LIVER, S-9, Method: STANDARD PLATE) was “inactive; negative (2×) and active; positive”.

Take `COc1cc([N+](=O)[O-])ccc1N=NC(C(C)=O)C(=O)Nc1ccccc1OC` (stereo not drawn): the mutagenic call under setting [2] is “active; positive [study A] and inactive; negative [study B]”.

On to `Nc1ccccc1S(=O)(=O)O`, for which, under setting [3], the mutagenic call was “active; positive [100 to 6667 µg/plate] and inactive; negative [33 to 3333 µg/plate]”.

As for `OCC(Cl)CCl` (stereo not drawn), the mutagenic call under setting [3] was “inactive; negative [study A] and active; positive [study B]”.

Consider `NNc1ccccc1`, for which the mutagenic call (Test System: AMES SALMONELLA TYPHIMURIUM, Strain/Indicator: TA102, Metabolic Activation: NONE, Method: STANDARD PLATE) was “active; positive [study A] and inactive; negative [study B]”.

On to `C#CCO`, for which the mutagenic call (Test System: Ames Salmonella typhimurium, Strain/Indicator: TA100, Metabolic Activation: None, Method: Preincubation) is “active; positive (2×) and active; positive (weak response)”.

Turning to `COc1ccc(C)cc1N`, the mutagenic call is, setting by setting: (Test System: E. COLI, Strain/Indicator: WP2 UVRA, Metabolic Activation: HAMSTER, LIVER, S-9, AROCLOR 1254, Method: STANDARD PLATE) “inactive; negative [0.3 to 333.3 µg/plate] and inactive; negative [10 to 6666 µg/plate] and active; positive [62.5 to 3000 µg/plate]”; (Test System: E. COLI, Strain/Indicator: WP2 UVRA, Metabolic Activation: MOUSE, LIVER, S-9, Method: STANDARD PLATE) “inactive; negative [0.3 to 333.3 µg/plate] and inactive; negative [10 to 6666 µg/plate] and active; positive [62.5 to 3000 µg/plate]”.

For `S=C1NCCN1`, the mutagenic call runs as follows: (Test System: AMES SALMONELLA TYPHIMURIUM, Strain/Indicator: TA1535, Metabolic Activation: HAMSTER, LIVER, S-9, AROCLOR 1254 (10%), Method: PREINCUBATION) “inactive; negative and active; positive”; under setting [2], “inactive; negative and active; positive”; (Test System: AMES SALMONELLA TYPHIMURIUM, Strain/Indicator: TA1535, Metabolic Activation: RAT, LIVER, S-9, AROCLOR 1254 (10%), Method: PREINCUBATION) “inactive; negative and active; positive”.

For `CC(C)CCON=O`, the mutagenic call is “active; equivocal (previously evaluated positive); also recorded: active; positive; also recorded: active; inconclusive (previously evaluated positive)” (Test System: Mouse lymphoma, Strain/Indicator: L5178Y (tk+/tk-), Metabolic Activation: None, Method: Suspension/plate); “active; positive (2×) and inactive; negative” (Test System: Mouse lymphoma, Strain/Indicator: L5178Y (tk+/tk-), Metabolic Activation: Rat, Liver, S-9, Aroclor 1254, Method: Suspension/plate).

`Oc1ccc2c(ccc3c4ccccc4ccc23)c1`: under setting [1], the mutagenic call is “active; positive [study A] and inactive; negative [study B]”.

On to `CN1CCC=C2c3nc(N)sc3CCC21` (stereo not drawn), for which the mutagenic call (Test System: AMES SALMONELLA TYPHIMURIUM, Strain/Indicator: TA1538, Metabolic Activation: RAT, LIVER, S-9, AROCLOR 1254, Method: STANDARD PLATE) was “active; positive [sample A, study B] and inactive; negative [sample B, study A]”.

For the compound `CC1(c2ccc(Oc3ccccc3)cc2)OC(=O)N(Nc2ccccc2)C1=O` (stereo not drawn), under “End Point: UDS in rat hepatocytes, Test System: Crl:CD(SB)BR male rats, Metabolic Activation: None”, the mutagenic call was “inactive; negative; also recorded: active; positive. (reporducible in 3 trials but no concentration-related response)”.

As to `CCOC(=O)NNc1nncc2ccccc12`, the mutagenic call under setting [4] was “inactive; negative [study A] and active; positive [study B]”.

Turning to `O=C(O)c1cc2ccccc2cc1O`, the mutagenic call was “active; positive (structural changes and ploidy). precipitation of test chemical at 1.0; also recorded: active; positive (structural changes and ploidy); also recorded: active; positive (structural changes and ploidy). weak response” under setting [5]; “inactive; negative [study A] and active; positive [study B] and inactive; negative [study C]” (Test System: AMES SALMONELLA TYPHIMURIUM, Strain/Indicator: TA1537, Metabolic Activation: NONE, Method: PREINCUBATION).

With `Oc1cccc2c1ccc1c3ccccc3ccc21`, the mutagenic call under setting [1] is “active; positive [study A] and inactive; negative [study B]”.

Turning to `O=C1C=CC(=O)c2ccccc21`, the mutagenic call under setting [5] was “active; positive (structural changes and ploidy). toxic at 0.00024 mg/ml; also recorded: inactive; negative. weak structural change response is not dose related; also recorded: active; positive (structural changes). weak ploidy response is not dose related”.

Regarding `C[C@H]1CCCC(=O)CCC/C=C/c2cc(O)cc(O)c2C(=O)O1`, the mutagenic call is “inactive; negative and active; positive” (End Point: IN VITRO CHROMOSOMAL ABERRATIONS, Test System: CHINESE HAMSTER OVARY CELLS, Metabolic Activation: RAT, LIVER, S-9, AROCLOR 1254); “inactive; negative; toxicity at 1000 ug/plate [study A]; also recorded: inactive; negative [study B]” under setting [4]; “inactive; negative; toxicity at 1000 ug/plate [study A]; also recorded: inactive; negative [study B]” (Test System: AMES SALMONELLA TYPHIMURIUM, Strain/Indicator: TA1538, Metabolic Activation: NONE, Method: STANDARD PLATE).

Regarding `CCCCBr`, the mutagenic call runs as follows: (Test System: Ames Salmonella typhimurium, Strain/Indicator: TA98, Metabolic Activation: None, Method: Gas/vapor modification) “inactive; negative (growth inhibition observed at highest dose); also recorded: inactive; negative (growth inhibition observed at 2 highest doses)”; (Test System: Ames Salmonella typhimurium, Strain/Indicator: TA98, Metabolic Activation: Rat, Liver, S-9, Phenobarbital and 5,6-benzoflavone, Method: Gas/vapor modification) “inactive; negative (growth inhibition observed at highest dose); also recorded: inactive; negative (growth inhibition observed at 2 highest doses)”; (Test System: Ames Salmonella typhimurium, Strain/Indicator: TA100, Metabolic Activation: None, Method: Gas/vapor modification) “active; positive; also recorded: active; positive (growth inhibition observed at 2 highest doses)”; (Test System: Ames Salmonella typhimurium, Strain/Indicator: TA100, Metabolic Activation: Rat, Liver, S-9, Phenobarbital and 5,6-benzoflavone, Method: Gas/vapor modification) “active; positive; also recorded: active; positive (growth inhibition observed at 2 highest doses)”; (Test System: Ames Salmonella typhimurium, Strain/Indicator: TA1535, Metabolic Activation: None, Method: Gas/vapor modification) “active; positive; also recorded: active; positive (growth inhibition observed at 2 highest doses)”; (Test System: Ames Salmonella typhimurium, Strain/Indicator: TA1535, Metabolic Activation: Rat, Liver, S-9, Phenobarbital and 5,6-benzoflavone, Method: Gas/vapor modification) “active; positive; also recorded: active; positive (growth inhibition observed at 2 highest doses)”. Moreover, the mutagenic call is “inactive; negative (growth inhibition observed at highest dose); also recorded: inactive; negative (growth inhibition observed at 2 highest doses)” (Test System: Ames Salmonella typhimurium, Strain/Indicator: TA1537, Metabolic Activation: None, Method: Gas/vapor modification); “inactive; negative (growth inhibition observed at highest dose); also recorded: inactive; negative (growth inhibition observed at 2 highest doses)” (Test System: Ames Salmonella typhimurium, Strain/Indicator: TA1537, Metabolic Activation: Rat, Liver, S-9, Phenobarbital and 5,6-benzoflavone, Method: Gas/vapor modification); “active; positive; also recorded: active; positive (growth inhibition observed at 2 highest doses)” (Test System: E. coli, Strain/Indicator: WP2uvrA/pKM101, Metabolic Activation: None, Method: Gas/vapor modification); “active; positive; also recorded: active; positive (growth inhibition observed at 2 highest doses)” (Test System: E. coli, Strain/Indicator: WP2uvrA/pKM101, Metabolic Activation: Rat, Liver, S-9, Phenobarbital and 5,6-benzoflavone, Method: Gas/vapor modification).

Consider `CCCCOCCO`, for which the mutagenic call (Test System: AMES SALMONELLA TYPHIMURIUM, Strain/Indicator: TA97A, Metabolic Activation: NONE, Method: STANDARD PLATE) is “inactive; negative [study A] and active; positive [study B]”.

Turning to `O=CCCCC=O`, the mutagenic call was “active; positive (structural changes); authors report equivocal results for ploidy chang; also recorded: active; positive (structural changes)” (End Point: IN VITRO CHROMOSOMAL ABERRATIONS, Test System: CHL CELLS, Metabolic Activation: NONE); “active; positive [study A] and inactive; negative [study B] and inactive; negative [study C]” (Test System: AMES SALMONELLA TYPHIMURIUM, Strain/Indicator: TA100, Metabolic Activation: NONE, Method: PREINCUBATION); “active; positive [study A] and inactive; negative [study B]” (Test System: E. COLI, Strain/Indicator: WP2 (PKM101), Metabolic Activation: NONE, Method: STANDARD PLATE).

In the case of `Nc1ccc(/C=C/c2ccccc2)cc1`, the mutagenic call (Test System: AMES SALMONELLA TYPHIMURIUM, Strain/Indicator: TA98, Metabolic Activation: NONE, Method: STANDARD PLATE) is “inactive; negative [sample A, study A] and active; positive [sample B, study B] and active; positive [sample B, study C]”.

(Values after PubChem BioAssay AID1259407 (Chemical Carcinogenesis Research Information System (CCRIS), 2018).)
